Self-cleavage data for 56 variants are collected here from the RNAGym collection of RNA variant scans (doi:10.7554/elife.90254).

The labels stand for the following.
B1: LINE1-mini (parent)
chain: GGCAGAGCUCAACACAGCGUGGCAAAGUGGCUGUGGCUAGACUGCC

Read counts are not given, so values of variants with three or more changes are uncertain.

Variants of B1 are the subject of the series. Briefly: self-cleavage, relative activity (ratio to wild type); higher = more cleavage; in vitro, sequencing; the parent is a self-cleaving ribozyme.
With CUCAGACCUCAACACAGCGUGGCAAAGUGGCUGUGGCUAGACUGCC [G1C G2U G7C], the self-cleavage was determined as 0.03.

For CGCAGAGCUCAACAGCGCGUGGCAAAGUGGCUGUGGCUAGAUUGCC [G1C C15G A16C C42U], the self-cleavage is 0.

For CACAGAGCUCAACACAGCGCGGCAAAGUGGCUGUGGCUAGACUGCC [G1C G2A U20C], the self-cleavage came to 0.02.

CGCAUUGCUCAACACAGCGUGGCAAAGUGGCUGUGGCUAGACUACC [G1C G5U A6U G44A]: the self-cleavage worked out at 0.02.

Consider CGCACAGCUCAACACAGCUUGGCAAAGUGGCUGUGGCUAGACUGCC [G1C G5C G19U], for which the self-cleavage was determined as 0.02.

Turning to CGCAGAGCUAAACACAGCGUGGAAAAGUGGCUGUGGCUAGACUGCC [G1C C10A C23A], the self-cleavage is 0.01.

Consider CGCAGAGCUAAGCACAGCGUGGCAAAGUGGCUGUGGCUAGACUGCC [G1C C10A A12G], for which the self-cleavage amounted to 0.01.

Regarding CUCAGAGCUCAACAAAGCCUGGCAAAGUGGCUGUGGCUCGACUGCC [G1C G2U C15A G19C A39C], the self-cleavage is 0.03.

Turning to CGCAGAGCUAAACACAGCGUGUCAAAGUGGCUUUGGCUAGACUGCC [G1C C10A G22U G33U], the self-cleavage was determined as 0.03.

As to CGCAGAGCUCAACACAGAGUGGCAAAGUGGCUGUGACUAGACUGCC [G1C C18A G36A], the self-cleavage was 0.06.

CGUAUAGCUAAACACAGCGUGGCAAAGUGGCUGUGGCUAGACUGCA [G1C C3U G5U C10A C46A]: the self-cleavage was determined as 0.01.

As for CGCAGAGUUCAACACAGGGUGGGAAAGUGGCGGUGGCUAGACUGCC [G1C C8U C18G C23G U32G], the self-cleavage was determined as 0.04.

Consider CGCAGAGCUAAACACAACGUGGCAAAGUGGCUGUGGCUAGACUGCC [G1C C10A G17A], for which the self-cleavage amounted to 0.03.

As for CGCAGAGUUCAACACAGCGUGGAAAAGUGGCUGUGGCUAGACUGCC [G1C C8U C23A], the self-cleavage was found to be 0.

For CGCAGAGCUCAACACAGUGUGGCAGUGUGGCUGUGGCUAGACUGCC [G1C C18U A25G A26U], the self-cleavage was found to be 0.01.

Turning to CGCAGAGCUCAACAUAGCGUGGCAAAGUGGUUGUAGCUAGACUGCC [G1C C15U C31U G35A], the self-cleavage amounted to 0.02.

Consider CGCAGAGCUGAACACAGCGUGGCAACAUGGCUGUGGCUAGACUGCC [G1C C10G A26C G27A], for which the self-cleavage was 0.

As for CGCAGAGCUCAAGACAGCGUGGCAAAGUGGCUGUGGCUAGACUGAA [G1C C13G C45A C46A], the self-cleavage amounted to 0.03.

Consider CUCAGAGCUCAACACAGCGUGGCAAAGUGGCUGUUGCUAGACUGCC [G1C G2U G35U], for which the self-cleavage was determined as 0.09.

As for CUCAGAGCUCAACACAGCGUGGCAAAGUGGCUGUCGCUAGACUGCC [G1C G2U G35C], the self-cleavage came out at 0.05.

For CACAGAGCUCAACACAGCGUGGCAAAGUGGCUGCGGCUAGACUGCC [G1C G2A U34C], the self-cleavage is 0.05.

With CGCAUAGCUCAACGCAGCUUGGCAAAGUGGCUGUGGCUAGACUGCC [G1C G5U A14G G19U], the self-cleavage was 0.

CGCAGAGCUCAAAACAGGCUGGCAAAGUGGCUGUGGCUAAACUGCG [G1C C13A C18G G19C G40A C46G]: the self-cleavage came out at 0.

As for CGCAAAGCUCAACACAGCGUCGAUAAGUGGCCGUAGCUAGACUGCC [G1C G5A G21C C23A A24U U32C G35A], the self-cleavage came out at 0.02.

With CGCAGAGCUAAACACAGCGUGGCAAAGUGGCUGUGGCUGGACUGCC [G1C C10A A39G], the self-cleavage amounted to 0.

Turning to CACAGAGCUCAAAACAGCGUGGCAGAGUGGCUGUGGCUAGACUGCC [G1C G2A C13A A25G], the self-cleavage came to 0.03.

On to CGCAUAGCUUACCACAGCGUGGCAAAGUGGCUGUGGCUAGACUGCC [G1C G5U C10U A12C], for which the self-cleavage is 0.

On to CGCAGAGCUCAACACAGCGUGGGAUAGUGGCUGUGGCUAGCUUGCC [G1C C23G A25U A41C C42U], for which the self-cleavage came out at 0.01.

For the variant CGCACAGCUGAACACAGCGUGGCAAAGUGGCUGUGGCUAGACUGCC [G1C G5C C10G], the self-cleavage turned out to be 0.02.

In the case of CGCAGAGCUCAAUACAGCGUGGCAAAGUGGGUGUGGCAAGACUGCC [G1C C13U C31G U38A], the self-cleavage amounted to 0.

As for CCUAGAGCUCACCACAGCGUGGCAAAGUGGCUGUGGCUAGACUGUC [G1C G2C C3U A12C C45U], the self-cleavage was 0.13.

In the case of CGCACAGCUCAACACAGCGUUGCAAAGUGGUUGUGGCUAGACUGCC [G1C G5C G21U C31U], the self-cleavage amounted to 0.

For the variant CUCAGAGCUCAACACAGCGUGGCAACGUGGCUGUGGCUAGACUGCC [G1C G2U A26C], the self-cleavage came to 0.05.

CUCAGUGCUCAACACUGCGAGGCAAAGUGGCUGUGGCUAGGCUGCC [G1C G2U A6U A16U U20A A41G]: the self-cleavage came out at 0.01.

Regarding CGCAGAGCUAAGCACAGCGUGGCACAGUGGCUGUGGCUAGACUGCC [G1C C10A A12G A25C], the self-cleavage was 0.

As to CGCAGAGCUAAACACAGCGGGGCAAAGUGGCUGUGGCUAGACUGCC [G1C C10A U20G], the self-cleavage was 0.

Turning to CGCAGAGCUCAACAUAGCGUGACAAAGUGGCUGUGGCUAAACUGCC [G1C C15U G22A G40A], the self-cleavage was determined as 0.02.

As to CGCAGAGCUUAACACAACGUGGCAAAGUGGGUGUGGCUGGACUGCC [G1C C10U G17A C31G A39G], the self-cleavage came to 0.02.

CGCAGAGCUCAACACAGCGUGGUAAAGUGGCUGUGGCUAGAUUGCC [G1C C23U C42U]: the self-cleavage stood at 0.01.

CUAAGAGCUCAGCACAGCGUGGCAAAGUGGCUGUGGCUAUACUGCC [G1C G2U C3A A12G G40U]: the self-cleavage amounted to 0.03.

Consider CGCACAGCUCAACACAGCGUGGCAAAGUGGGUGUGGAUAGUCUGUC [G1C G5C C31G C37A A41U C45U], for which the self-cleavage is 0.01.

As for CGUAGAGCUCAGCACAGCGUGGGAAAGUGGCUGUGGCUAAACUGCC [G1C C3U A12G C23G G40A], the self-cleavage stood at 0.01.

In the case of CGCAGAGCUGAUCACAACGUGGCAAAGUGGCUGUGGCUAGACUACC [G1C C10G A12U G17A G44A], the self-cleavage was 0.

Turning to CGCACAGCUCAACACUGCGUGUCAACGUGGCUCUGGCUAGACUGCC [G1C G5C A16U G22U A26C G33C], the self-cleavage was found to be 0.02.

With CGCAGAGCUAAACACGGCGUGGCAAAGUGGCUGUGGCUAGACUGCC [G1C C10A A16G], the self-cleavage came out at 0.01.

Take CGCAGAGCUCAAAACAGCGUGUCAAAGUGGCUGUGGCUAGACUGUC [G1C C13A G22U C45U]: the self-cleavage came out at 0.02.

For CCCACAGCUCAACACAGCGUGUCAAAGUGGCUGUAGCUAGACUGCC [G1C G2C G5C G22U G35A], the self-cleavage was found to be 0.01.

CGCAGAGCUCAACACAGGGUGGCAAAGUGGAUGUGGCUAAACUGCC [G1C C18G C31A G40A]: the self-cleavage worked out at 0.

As for CGCAGAGCUAAACACAGCGUGGCAAAGUGGCUGUGGCAAGACUGCC [G1C C10A U38A], the self-cleavage is 0.

With CGCAGAGCUCAAGAUAGCGUGGCAAAGUGGCUCUAGCUAGACUGCC [G1C C13G C15U G33C G35A], the self-cleavage was determined as 0.

For CGCAGAGCUCAACACAGCGUGGAAAAGUGGCUGUGGCUAGACUGAG [G1C C23A C45A C46G], the self-cleavage stood at 0.04.

Consider CGCAGAGCUUAACACAUCGUGGCAAACUGGCUGUGGCUAGACAGGC [G1C C10U G17U G27C U43A C45G], for which the self-cleavage worked out at 0.02.

Take CGCAGAGCUCAACACAGGGUGGCAACGUGGCUGUGACAAGACUGCA [G1C C18G A26C G36A U38A C46A]: the self-cleavage turned out to be 0.

With CGCAGAGCUCAACAAACCGUGGCAAAGUGGGUGUGGCUAGAGUGCC [G1C C15A G17C C31G C42G], the self-cleavage worked out at 0.

CGCAGAGAUCAACACAGCGUGGUAAAGUGGCUGUGGCUAGACUGUC [G1C C8A C23U C45U]: the self-cleavage was found to be 0.01.

CGCACAGCUCAACACAGCGAGGCAAAGUGGGUGUGGCUACACUGCC [G1C G5C U20A C31G G40C]: the self-cleavage was found to be 0.02.
